Drawing on patent US11685745B2, “Substituted benzoxazole and benzofuran compounds as PDE7 inhibitors” (Dart NeuroScience, LLC, priority 2017, dated 2023), this text covers IC50 for 32 molecules.

The assay addresses N-terminal truncated recombinant human PDE7B enzyme (Homo sapiens (Human), UniProt Q9NP56). Nature of the assay: biochemical.
As usually defined, the IC50 is the concentration at which inhibition is half-maximal. Take `CCN1CCN(C(=O)c2cc3cc(Cl)c4c(c3o2)C2(CCCCC2)NC(=O)N4)CC1` [Example 231, 5′-Chloro-2′-(4-ethylpiperazine-1-carbonyl)-7′,8′-dihydro-6′H-spiro[cyclohexane-1,9′-furo[2,3-f]quinazoline]-7′-one]: the IC50 lay within 10 to 100 nM.

Consider `COCCN1CCN(C(=O)c2cc3cc(Cl)c4c(c3o2)C2(CCCCC2)NC(=O)N4)CC1` [Example 233, 5′-Chloro-2′-[4-(2-methoxyethyl)piperazine-1-carbonyl]-7′,8′-dihydro-6′H-spiro[cyclohexane-1,9′-furo[2,3-f]quinazoline]-7′-one], for which the IC50 lay within 10 to 100 nM.

For `O=C1Nc2c(Cl)cc3cc(C(=O)N4CCCCC4)oc3c2C2(CCCCC2)N1` [Example 234, 5′-Chloro-2′-(piperidine-1-carbonyl)-7′,8′-dihydro-6′H-spiro[cyclohexane-1,9′-furo[2,3-f]quinazoline]-7′-one], the IC50 lay in the range of 10 to 100 nM.

As to `O=C1Nc2c(Cl)cc3cc(C(=O)N4CCC4)oc3c2C2(CCCCC2)N1` [Example 235, 2′-(Azetidine-1-carbonyl)-5′-chloro-7′,8′-dihydro-6′H-spiro[cyclohexane-1,9′-furo[2,3-f]quinazoline]-7′-one], the IC50 is 10 to 100 nM.

`O=C1Nc2c(Cl)cc3cc(C(=O)N4CCCC4)oc3c2C2(CCCCC2)N1` [Example 236, 5′-Chloro-2′-(pyrrolidine-1-carbonyl)-7′,8′-dihydro-6′H-spiro[cyclohexane-1,9′-furo[2,3-f]quinazoline]-7′-one]: the IC50 is 10 to 100 nM.

On to `O=C1Nc2c(Cl)cc3cc(C(=O)N4CCOCC4)oc3c2C2(CCCCC2)N1` [Example 237, 5′-Chloro-2′-(morpholine-4-carbonyl)-7′,8′-dihydro-6′H-spiro[cyclohexane-1,9′-furo[2,3-f]quinazoline]-7′-one], for which the IC50 was in the range of 10 to 100 nM.

On to `O=C1Nc2c(Cl)cc3cc(C(=O)N4CCN(CC(F)(F)F)CC4)oc3c2C2(CCCCC2)N1` [Example 238, 5′-Chloro-2′-[4-(2,2,2-trifluoroethyl)piperazine-1-carbonyl]-7′,8′-dihydro-6′H-spiro[cyclohexane-1,9′-furo[2,3-f]quinazoline]-7′-one], for which the IC50 lay in the range of 10 to 100 nM.

Turning to `O=C1Nc2c(Cl)cc3cc(C(=O)N4CCN(CC(F)F)CC4)oc3c2C2(CCCCC2)N1` [Example 239, 5′-Chloro-2′-[4-(2,2-difluoroethyl)piperazine-1-carbonyl]-7′,8′-dihydro-6′H-spiro[cyclohexane-1,9′-furo[2,3-f]quinazoline]-7′-one], the IC50 fell in the range of 10 to 100 nM.

Consider `O=C1Nc2c(Cl)cc3cc(CN4C[C@@H]5C[C@H]4CO5)oc3c2C2(CCCCC2)N1` [Example 240, 5′-Chloro-2′-[(1S,4S)-2-oxa-5-azabicyclo[2.2.1]heptan-5-ylmethyl]-7′,8′-dihydro-6′H-spiro[cyclohexane-1,9′-furo[2,3-f]quinazoline]-7′-one], for which the IC50 is 10 to 100 nM.

Turning to `O=C1Nc2c(Cl)cc3cc(CN4CCCCC4)oc3c2C2(CCCCC2)N1` [Example 241, 5′-Chloro-2′-(piperidin-1-ylmethyl)-7′,8′-dihydro-6′H-spiro[cyclohexane-1,9′-furo[2,3-f]quinazoline]-7′-one], the IC50 lay in the range of 100 to 1000 nM.

With `O=C1Nc2c(Cl)cc3cc(CN4CCOCC4)oc3c2C2(CCCCC2)N1` [Example 242, 5′-Chloro-2′-(morpholin-4-ylmethyl)-7′,8′-dihydro-6′H-spiro[cyclohexane-1,9′-furo[2,3-f]quinazoline]-7′-one], the IC50 lay in the range of 10 to 100 nM.

For the molecule `O=C1Nc2c(Cl)cc3cc(CN4CCCC4)oc3c2C2(CCCCC2)N1` [Example 243, 5′-Chloro-2′-(pyrrolidin-1-ylmethyl)-7′,8′-dihydro-6′H-spiro[cyclohexane-1,9′-furo[2,3-f]quinazoline]-7′-one], the IC50 was 100 to 1000 nM.

For `CN1CCN(Cc2cc3cc(Cl)c4c(c3o2)C2(CCCCC2)NC(=O)N4)CC1` [Example 244, 5′-chloro-2′-[(4-methylpiperazin-1-yl)methyl]-7′,8′-dihydro-6′H-spiro[cyclohexane-1,9′-furo[2,3-f]quinazoline]-7′-one], the IC50 was in the range of 100 to 1000 nM.

On to `CCN(C(=O)c1cc2cc(Cl)c3c(c2o1)C1(CCCCC1)NC(=O)N3)C(C)C` [Example 245, 5′-Chloro-N-ethyl-7′-oxo-N-(propan-2-yl)-7′,8′-dihydro-6′H-spiro[cyclohexane-1,9′-furo[2,3-f]quinazoline]-2′-carboxamide], for which the IC50 lay in the range of 10 to 100 nM.

`CC(C)OCCNC(=O)c1cc2cc(Cl)c3c(c2o1)C1(CCCCC1)NC(=O)N3` [Example 246, 5′-Chloro-7′-oxo-N-[2-(propan-2-yloxy)ethyl]-7′,8′-dihydro-6′H-spiro[cyclohexane-1,9′-furo[2,3-f]quinazoline]-2′-carboxamide]: the IC50 was 10 to 100 nM.

Turning to `COC1CCN(C(=O)c2cc3cc(Cl)c4c(c3o2)C2(CCCCC2)NC(=O)N4)CC1` [Example 247, 5′-Chloro-2′-(4-methoxypiperidine-1-carbonyl)-7′,8′-dihydro-6′H-spiro[cyclohexane-1,9′-furo[2,3-f]quinazoline]-7′-one], the IC50 lay within 100 to 1000 nM.

As for `O=C1Nc2c(Cl)cc3cc(C(=O)NCc4ccc(F)cc4)oc3c2C2(CCCCC2)N1` [Example 248, 5′-Chloro-N-[(4-fluorophenyl)methyl]-7′-oxo-7′,8′-dihydro-6′H-spiro[cyclohexane-1,9′-furo[2,3-f]quinazoline]-2′-carboxamide], the half-maximal inhibitory concentration (IC50) was in the range of 100 to 1000 nM.

Turning to `COCCNC(=O)c1cc2cc(Cl)c3c(c2o1)C1(CCCCC1)NC(=O)N3` [Example 249, 5′-Chloro-N-(2-methoxyethyl)-7′-oxo-7′,8′-dihydro-6′H-spiro[cyclohexane-1,9′-furo[2,3-f]quinazoline]-2′-carboxamide], the IC50 was 100 to 1000 nM.

For the molecule `CC(C)CN(C)C(=O)c1cc2cc(Cl)c3c(c2o1)C1(CCCCC1)NC(=O)N3` [Example 250, 5′-Chloro-N-methyl-N-(2-methylpropyl)-7′-oxo-7′,8′-dihydro-6′H-spiro[cyclohexane-1,9′-furo[2,3-f]quinazoline]-2′-carboxamide], the IC50 is 10 to 100 nM.

For the molecule `CN(C(=O)c1cc2cc(Cl)c3c(c2o1)C1(CCCCC1)NC(=O)N3)C1CCCC1` [Example 251, 5′-Chloro-N-cyclopentyl-N-methyl-7′-oxo-7′,8′-dihydro-6′H-spiro[cyclohexane-1,9′-furo[2,3-f]quinazoline]-2′-carboxamide], the IC50 lay within 100 to 1000 nM.

Regarding `CC(C)C(CO)NC(=O)c1cc2cc(Cl)c3c(c2o1)C1(CCCCC1)NC(=O)N3` (centres unmarked) [Example 252, 5′-Chloro-N-(1-hydroxy-3-methylbutan-2-yl)-7′-oxo-7′,8′-dihydro-6′H-spiro[cyclohexane-1,9′-furo[2,3-f]quinazoline]-2′-carboxamide], the IC50 lay in the range of 10 to 100 nM.

As to `CN1CCC(NC(=O)c2cc3cc(Cl)c4c(c3o2)C2(CCCCC2)NC(=O)N4)CC1` [Example 253, 5′-Chloro-N-(1-methylpiperidin-4-yl)-7′-oxo-7′,8′-dihydro-6′H-spiro[cyclohexane-1,9′-furo[2,3-f]quinazoline]-2′-carboxamide], the IC50 lay in the range of 100 to 1000 nM.

As for `O=C1Nc2c(Cl)cc3cc(C(=O)NCc4ccccc4F)oc3c2C2(CCCCC2)N1` [Example 254, 5′-Chloro-N-[(2-fluorophenyl)methyl]-7′-oxo-7′,8′-dihydro-6′H-spiro[cyclohexane-1,9′-furo[2,3-f]quinazoline]-2′-carboxamide], the IC50 was 100 to 1000 nM.

Regarding `O=C1Nc2c(Cl)cc3cc(C(=O)N4CCN(CCO)CC4)oc3c2C2(CCCCC2)N1` [Example 255, 5′-Chloro-2′-[4-(2-hydroxyethyl)piperazine-1-carbonyl]-7′,8′-dihydro-6′H-spiro[cyclohexane-1,9′-furo[2,3-f]quinazoline]-7′-one], the IC50 fell in the range of 10 to 100 nM.

Regarding `O=C1Nc2c(Cl)cc3cc(C(=O)NCCCO)oc3c2C2(CCCCC2)N1` [Example 256, 5′-Chloro-N-(3-hydroxypropyl)-7′-oxo-7′,8′-dihydro-6′H-spiro[cyclohexane-1,9′-furo[2,3-f]quinazoline]-2′-carboxamide], the IC50 was in the range of 10 to 100 nM.

With `O=C1Nc2c(Cl)cc3cc(C(=O)NCCCCO)oc3c2C2(CCCCC2)N1` [Example 257, 5′-Chloro-N-(4-hydroxybutyl)-7′-oxo-7′,8′-dihydro-6′H-spiro[cyclohexane-1,9′-furo[2,3-f]quinazoline]-2′-carboxamide], the IC50 was in the range of 10 to 100 nM.

Turning to `CCCN(CCO)C(=O)c1cc2cc(Cl)c3c(c2o1)C1(CCCCC1)NC(=O)N3` [Example 258, 5′-Chloro-N-(2-hydroxyethyl)-7′-oxo-N-propyl-7′,8′-dihydro-6′H-spiro[cyclohexane-1,9′-furo[2,3-f]quinazoline]-2′-carboxamide], the IC50 was 10 to 100 nM.

As to `O=C1Nc2c(Cl)cc3cc(C(=O)NCCN4CCCC4)oc3c2C2(CCCCC2)N1` [Example 259, 5′-Chloro-7′-oxo-N-[2-(pyrrolidin-1-yl)ethyl]-7′,8′-dihydro-6′H-spiro[cyclohexane-1,9′-furo[2,3-f]quinazoline]-2′-carboxamide], the IC50 was 100 to 1000 nM.

For the molecule `CCN(CCN(C)C)C(=O)c1cc2cc(Cl)c3c(c2o1)C1(CCCCC1)NC(=O)N3` [Example 260, 5′-Chloro-N-[2-(dimethylamino)ethyl]-N-ethyl-7′-oxo-7′,8′-dihydro-6′H-spiro[cyclohexane-1,9′-furo[2,3-f]quinazoline]-2′-carboxamide], the IC50 lay in the range of 100 to 1000 nM.

As to `O=C1Nc2c(Cl)cc3cc(C(=O)NCCCn4ccnc4)oc3c2C2(CCCCC2)N1` [Example 261, 5′-Chloro-N-[3-(1H-imidazol-1-yl)propyl]-7′-oxo-7′,8′-dihydro-6′H-spiro[cyclohexane-1,9′-furo[2,3-f]quinazoline]-2′-carboxamide], the IC50 was 10 to 100 nM.

Regarding `CN(CCO)C(=O)c1cc2cc(Cl)c3c(c2o1)C1(CCCCC1)NC(=O)N3` [Example 262, 5′-Chloro-N-(2-hydroxyethyl)-N-methyl-7′-oxo-7′,8′-dihydro-6′H-spiro[cyclohexane-1,9′-furo[2,3-f]quinazoline]-2′-carboxamide], the IC50 lay within 10 to 100 nM.

In the case of `CCC(O)CNC(=O)c1cc2cc(Cl)c3c(c2o1)C1(CCCCC1)NC(=O)N3` (centres unmarked) [Example 263, 5′-Chloro-N-(2-hydroxybutyl)-7′-oxo-7′,8′-dihydro-6′H-spiro[cyclohexane-1,9′-furo[2,3-f]quinazoline]-2′-carboxamide], the IC50 was 10 to 100 nM.
